# Laboratory results from the supplement of paper PMC10369915.
# The other results are listed elsewhere or left out. Rule as the data show it: active = 3.2 or more and inactive = the rest. Only a few entries rise above the background.
# What was measured:
# Assay in all cases: enrichment score (SH2-bound / input frequency) (ratio); bacterial display of known human phosphotyrosine sites (pTyr-Var adds point mutants) read by sequencing; higher = stronger binding; tyrosines were phosphorylated by kinases first
# Conditions in all cases: peptide library: pTyr-Var
# [1] = molecular target: SHP2 C-SH2 domain E139D
# [2] = molecular target: SHP2 C-SH2 domain wild-type
# [3] = molecular target: SHP2 N-SH2 domain L43F
# [4] = molecular target: SHP2 N-SH2 domain T42A
# [5] = molecular target: SHP2 N-SH2 domain T52S
# [6] = molecular target: SHP2 N-SH2 domain wild-type
# 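Also: displayed peptides selected on beads carrying the immobilized SH2 domain, with library peptides lacking any tyrosine serving as negative controls.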
Binder,enrichment score [1],enrichment score [2],enrichment score [3],enrichment score [4],enrichment score [5],enrichment score [6]
DEEEEYEFMNR [ERBB3_Y1197_D1194E_YF],inactive: 0.509,inactive: 0.619,inactive: 0.453,inactive: 0.54,inactive: 0.497,inactive: 0.411
RQLEIYRASRP [ERCC4_Y594],inactive: 0.373,inactive: 0.44,inactive: 0.42,inactive: 0.4,inactive: 0.446,inactive: 0.581
RAMRRYLEWGE [ERBB3_Y680_R683W],inactive: 0.251,inactive: 0.262,inactive: 0.208,inactive: 0.224,inactive: 0.229,inactive: 0.214
DYDHSYYFIAT [ESD_Y262_G257D],inactive: 0.597,inactive: 1.1,inactive: 0.614,inactive: 0.755,inactive: 0.648,inactive: 0.742
GSETPYVDRTP [ESS2_Y335],inactive: 0.453,inactive: 0.387,inactive: 0.361,inactive: 0.37,inactive: 0.429,inactive: 0.371
RAMRRYLERGE [ERBB3_Y680],inactive: 0.232,inactive: 0.19,inactive: 0.247,inactive: 0.253,inactive: 0.238,inactive: 0.245
RLQEGYDHSYY [ESD_Y258],inactive: 0.672,inactive: 0.633,inactive: 0.636,inactive: 0.658,inactive: 0.526,inactive: 0.883
TYVVLYDAELT [ERCC4_Y581_R576T],inactive: 2.21,inactive: 2,active: 3.52,active: 5.1,active: 3.59,inactive: 1.85
ALRASYTPSPA [ESS2_Y418],inactive: 0.608,inactive: 0.663,inactive: 0.67,inactive: 0.513,inactive: 0.659,inactive: 0.77
TFVVLYDAELT [ERCC4_Y581_R576T_YF],inactive: 2.66,inactive: 2.64,inactive: 2.56,inactive: 2.41,inactive: 2.66,inactive: 2.58
FFCRWYRNRKS [EREG_Y144_YF],inactive: 0.313,inactive: 0.264,inactive: 0.366,inactive: 0.242,inactive: 0.286,inactive: 0.316
DEEEEYEYMNR [ERBB3_Y1197_D1194E],inactive: 0.327,inactive: 0.558,inactive: 0.481,inactive: 0.374,inactive: 0.452,inactive: 0.465
GSETPYMDRTP [ESS2_Y335_V336M],inactive: 0.387,inactive: 0.479,inactive: 0.373,inactive: 0.48,inactive: 0.456,inactive: 0.594
RFVVLYDAELT [ERCC4_Y581_YF],inactive: 1.8,inactive: 1.87,inactive: 1.81,inactive: 1.78,inactive: 1.78,inactive: 1.9
YFCRWYRNRKS [EREG_Y144],inactive: 0.282,inactive: 0.302,inactive: 0.249,inactive: 0.228,inactive: 0.219,inactive: 0.209
DEDEEYEFMNR [ERBB3_Y1197_YF],inactive: 0.407,inactive: 0.387,inactive: 0.329,inactive: 0.372,inactive: 0.41,inactive: 0.395
GPGGDYAAMGA [ERBB3_Y1276],inactive: 0.554,inactive: 0.457,inactive: 0.58,inactive: 0.47,inactive: 0.662,inactive: 0.579
SPPPAYTPMSG [ERBB4_Y1056],inactive: 0.604,inactive: 0.452,inactive: 0.561,inactive: 0.537,inactive: 0.491,inactive: 0.593
GDFLSYREFHS [ERBIN_Y1107_YF],inactive: 1.01,inactive: 0.958,inactive: 1.01,inactive: 1.11,inactive: 1.26,inactive: 0.962
